According to PubChem BioAssay AID624417 (National Center for Advancing Translational Sciences (NCATS), 2012):
About 6,400 (1.6%) of roughly 410,000 compounds were called active. The shares of active, inactive and inconclusive entries below differ from those in the screen. Calls follow the shape of the dose curve; as a rule, active = well fitted inhibition curve with a large enough effect; inconclusive = small, poorly fitted or top-dose-only effect; inactive = no such curve, though single readings can be large or run the other way. Potencies of inconclusive entries are left out as doubtful fits.

What follows are compounds tested against Glucagon-like peptide 1 receptor (Homo sapiens) (UniProt P43220) (assay: qHTS of GLP-1 Receptor Inverse Agonists (Inhibition Mode)). Conditions: HEK293 GLP-1R CRE-luciferase, luminescence, 24 h, GLP-1R form is constitutively active; activity change, negative = inhibition: at 38.3 µM (top of the series) unless noted.
In short: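 Constitutively active GLP-1R drives a cAMP-responsive luciferase in stably transfected HEK293 cells; test compounds are added after overnight (12 h) attachment and left 24 hr, and signal loss in luminescence marks inhibition.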
% is scaled to controls: 0 for no effect and ±100 for the full control effect; potency is read from the fitted curve at half-maximal effect; tags tell the direction and shape of the fitted curve.
Also: nearly all actives have a fitted effect of over 55% in size.

UniProt P43220, sequence (P43220 whole entry, looked up): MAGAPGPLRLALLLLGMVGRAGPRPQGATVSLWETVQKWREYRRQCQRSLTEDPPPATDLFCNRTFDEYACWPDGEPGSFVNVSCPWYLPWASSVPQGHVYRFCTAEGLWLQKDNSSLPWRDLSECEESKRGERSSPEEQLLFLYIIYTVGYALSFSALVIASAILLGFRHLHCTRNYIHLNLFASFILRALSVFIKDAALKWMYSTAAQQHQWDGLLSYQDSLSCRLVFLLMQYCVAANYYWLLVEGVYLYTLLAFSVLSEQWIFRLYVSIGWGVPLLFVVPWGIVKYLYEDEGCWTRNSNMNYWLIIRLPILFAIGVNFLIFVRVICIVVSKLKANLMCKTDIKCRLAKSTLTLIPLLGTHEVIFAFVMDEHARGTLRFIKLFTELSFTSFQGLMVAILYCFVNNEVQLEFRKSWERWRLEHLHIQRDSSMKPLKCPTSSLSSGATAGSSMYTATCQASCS

Compound	Potency	activity change, negative = inhibition
COC(=O)C1=CN(c2ccc(OC)cc2)C(N)=C(C#N)C1c1cccc2ccccc12 (stereo not drawn)	inconclusive [inhibitor, partial curve, poor fit]	
COc1ccc(-n2cc(CN3CCCC3)c(-c3cccc(F)c3)n2)cc1	inconclusive [inhibitor, single point]	
O=[N+]([O-])c1ccc(O)c(NC(=S)Nc2ccccc2)c1	inconclusive [inhibitor, single point]	
CCOc1cc(C(=S)N2CCOCC2)ccc1OC(=O)c1cccc(C)c1	inconclusive [inhibitor, partial curve, poor fit]	
CC1(C)CC2CC(C)(CN2S(=O)(=O)c2ccc(F)cc2F)C1 (stereo not drawn)	inconclusive [inhibitor, partial curve, poor fit]	
N#CC(NC(=O)OCc1ccccc1)c1ccccc1 (stereo not drawn)		inactive: -29.6%
CCN(CC)CCN(C(=O)c1cccc(N2C(=O)CCC2=O)c1)c1nc2cc3c(cc2s1)OCO3	inconclusive [inhibitor, single point]	
COc1cccc(N2CCN(C(=O)c3[nH]c(C)c(C(C)=O)c3C)CC2)c1	inconclusive [inhibitor, partial curve, poor fit]	
O=C(Nc1ccc(Cl)c(S(=O)(=O)N2CCOCC2)c1)c1ccccc1-c1ccc(C(F)(F)F)cc1	active: 2.82 µM	
CC(C)(C)NC(=O)CSc1ccc(C(C)(C)C)cc1	inconclusive [inhibitor, partial curve, poor fit]	
O=[N+]([O-])c1cc(Cl)c(O)c2ncccc12	inconclusive [inhibitor, single point]	
OC(CN1CCOCC1)CN(c1ccccc1)c1ccccc1 (stereo not drawn)	inconclusive [inhibitor, single point]	
COC(=O)[C@]12CCCCC=C1N(Cc1ccc(Cl)cc1Cl)C(=O)[C@H](CC(=O)NCc1ccc(OC)c(OC)c1)C2	inconclusive [inhibitor, single point]	
CC(C)(C)C(=O)Nc1ccccc1C(=O)Nc1cc(Cl)ccc1Cl	inconclusive [inhibitor, partial curve, poor fit]	
CCOC(=O)C1(CC2CCCCO2)CCN(C(=O)Nc2cccc(SC)c2)CC1 (stereo not drawn)	inconclusive [inhibitor, single point]	
Cc1cc(=O)oc2cc(OC(C)C(=O)N3CCOCC3)ccc12 (stereo not drawn)		inactive: 6.35%
Cn1cccc1Cc1nnc(SCC(=O)Nc2ccc(Cl)cc2)n1-c1ccc(F)cc1	inconclusive [inhibitor, single point]	
CCN(CC)c1ccc(NC(=O)Cn2cc3c(n2)CCCC3)c(C)c1		inactive: -5.68%
CCc1ccc(NC(=O)CSc2nc3c([nH]c4ccccc43)c(=O)n2C)cc1		inactive: 13.1%
CCc1cccc(NS(=O)(=O)c2ccc3c(c2)NC(=O)C(C)S3)c1 (stereo not drawn)	active: 11.2 µM	
CCCCN(CC)c1nc(-c2ccncc2)nc2ccccc12	inconclusive [inhibitor, partial curve, poor fit]	

Compound	Potency	activity change, negative = inhibition
O=C(CN1CCC(C(=O)c2ccc3c(c2)OCCO3)CC1)Nc1ccccc1C(F)(F)F	inconclusive [inhibitor, single point]	
Clc1ccc(SCc2csc(N3CCOCC3)n2)cc1	inconclusive [inhibitor, single point]	
Cc1nn(C)cc1CNCc1ccc(OCC(O)CN(C)Cc2ccccc2)cc1 (stereo not drawn)	inconclusive [inhibitor, single point]	
Cn1cc(S(=O)(=O)N2CCc3ccccc32)cc1C(=O)Nc1ccc(C(F)(F)F)cc1	inconclusive [inhibitor, partial curve, poor fit]	
O=C(COc1cccc2cccnc12)N/N=C/c1cccn1-c1ccc(F)cc1	inconclusive [inhibitor, single point]	
COC(=O)[C@]12CCCCC=C1N(Cc1ccco1)C(=O)[C@H](CC(=O)NCc1cccc(C(F)(F)F)c1)C2	inconclusive [inhibitor, single point]	
O=C(c1ccccc1F)N1CCc2ccccc21	inconclusive [inhibitor, partial curve, poor fit]	
CCOC(=O)C1=CN(Cc2ccco2)S(=O)(=O)N(C)C1c1ccc2ccccc2c1 (stereo not drawn)	active: 10 µM	
COc1ccccc1CN1CCCC(N2CCN(c3ccc(F)cc3)CC2)C1 (stereo not drawn)	inconclusive [inhibitor, single point]	
CCO[C@H]1OC(C(=O)N2CCCCCCC2)=C[C@@H](C2CCCCC2)[C@@H]1CCCO	inconclusive [inhibitor, partial curve, poor fit]	
CCOC(=O)C(NCc1ccc2c(c1)OCO2)(NC(=O)c1ccccc1)C(F)(F)F (stereo not drawn)	inconclusive [inhibitor, single point]	
O=C(COC(=O)c1ccc(O)cc1O)c1ccc(Cl)cc1	inconclusive [inhibitor, single point]	
COc1cccc(CNC(=O)c2cc3cc(C)ccc3n2C)c1	inconclusive [inhibitor, full curve]	
Cc1ccccc1OCC(=O)Nc1nnc(SCc2cc(=O)n3cccc(C)c3n2)s1		inactive: 3.14%
CCCOc1ccc(C(=O)Nc2cc(-c3nc4ccccc4[nH]3)ccc2C)cc1	active: 7.08 µM	
CN(CCOc1ccccc1)CC(=O)Nc1ccc(Br)cc1F	inconclusive [inhibitor, single point]	
O=C(c1ccco1)N1N=C(c2ccccc2O)CC1c1cccs1 (stereo not drawn)	inconclusive [inhibitor, single point]	
O=C(O)c1ccccc1N/N=C/c1cc(Br)cc(Br)c1O	inconclusive [inhibitor, single point]	
COc1ccc(C(c2nnnn2C2CCCC2)N2CCN(c3ccccc3)CC2)cc1 (stereo not drawn)	inconclusive [inhibitor, partial curve, poor fit]	
CCOc1ccccc1OCCC(=O)N1CCN(S(=O)(=O)c2ccccc2[N+](=O)[O-])CC1	inconclusive [inhibitor, partial curve]	
COC(=O)c1cc(NC(=O)c2cc(-c3ccc(C(F)(F)F)cc3)oc2C(F)(F)F)ccc1N1CCOCC1	inconclusive [inhibitor, partial curve, poor fit]	

Compound	Potency	activity change, negative = inhibition
CCCN(C(=O)c1c(C)oc2ncn(CC(C)C)c(=O)c12)c1ccccc1C		inactive: -17.1%
Cc1ccc(NS(=O)(=O)c2ccc(C3CCCCC3)cc2)cc1	inconclusive [inhibitor, single point]	
CC(C)n1c(SCC(=O)c2ccc(F)cc2)nc2c(sc3ccccc32)c1=O		inactive: 3.62%
Cc1nc(N2CCCCC2)sc1C(=O)c1ccc(SCCO)c([N+](=O)[O-])c1	inconclusive [inhibitor, single point]	
Cc1c(C(=O)Nc2ccc3c(c2)OCCO3)sc2ncnc(N3CCCCC3C)c12 (stereo not drawn)	inconclusive [inhibitor, single point]	
Cc1ccc(NC(=O)CC2SC(=O)N(c3ccccc3)C2=O)cc1 (stereo not drawn)		inactive: -10.6%
c1cncc(-c2nc(NCC3COc4ccccc4O3)c3ccccc3n2)c1 (stereo not drawn)	inconclusive [inhibitor, partial curve, poor fit]	
Cc1ccc(N=C2c3ccccc3C(=O)C2[N+](=O)[O-])cc1C (stereo not drawn)		inactive: 8.59%
CCc1ccc(C(=O)CN(C#N)c2nc(C)cc(C)n2)cc1	inconclusive [inhibitor, partial curve, poor fit]	
CCOC(=O)C1=C(COC(=O)/C=C/c2ccc(OC)cc2)NC(=O)NC1C (stereo not drawn)	inconclusive [inhibitor, full curve, poor fit]	
O=C(NNc1ccc(C(F)(F)F)cc1[N+](=O)[O-])c1ccc(NS(=O)(=O)c2ccc(F)cc2)cc1	inconclusive [inhibitor, partial curve, poor fit]	
Nc1cc2c3c(cccc3c1)C(=O)N(CCN1CCCC1)C2=O	inconclusive [inhibitor, single point]	
O=C1c2cccc3cccc(c23)C(=O)N1CCCN1CCN(c2ccc(F)cc2)CC1	inconclusive [inhibitor, partial curve, poor fit]	
CC1(C)C(C=C(Cl)Cl)C1C(=O)NC(O)C(=O)c1ccccc1 (stereo not drawn)		inconclusive: -35.7% [inhibitor]
COc1cccc(C(C(=O)NC2CCCC2)N(C(=O)c2ccco2)c2ccccc2)c1OC (stereo not drawn)	inconclusive [inhibitor, partial curve, poor fit]	
N#Cc1ccc(CN2CCN(C(=O)c3cccc(S(=O)(=O)N4CCCCCC4)c3)CC2)cc1	inconclusive [inhibitor, partial curve, poor fit]	
Cc1cccc(OCc2nnc(SCC(=O)N3CCN(c4ccccc4)CC3)o2)c1C	inconclusive [inhibitor, full curve, poor fit]	
CC1C(=O)N(Cc2cn(CCC3OCCCO3)nn2)CCS(=O)(=O)N1Cc1ccc(-c2ccc(F)cc2)cc1 (stereo not drawn)	inconclusive [inhibitor, partial curve, poor fit]	
CC1(C(=O)Nc2ccc3ccccc3c2)CCC(=O)N1CCCn1ccnc1 (stereo not drawn)		inactive: 15.6%
CCOC(=O)N1CCN(C(=O)c2ccc3c(=O)n4c(nc3c2)CCCCC4)CC1		inactive: 1.14%
CCN(CC)C(=O)CSc1nnc(-c2ccccc2)n1-c1ccccc1	inconclusive [inhibitor, single point]	
